Measurements from the supplement of paper PMC11417369.
± gives the standard deviation of the averaged measurements. The list shows a part of the results.

Tested on: PfAP2-G AP2 domain (GST-tagged)
Assay: gcPBM binding intensity (ln(normalized median fluorescence intensity)); higher = stronger DNA binding
Procedure, shortened: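 For binding intensity, the highest Masliner-normalised natural-log median intensity across replicate spots of either probe orientation was taken. Protein bound to the array was stained with Alexa488 anti-GST antibody and scanned at 488 nm. The protein, GST-tagged P. falciparum DNA-binding domains from E. coli at about 25 μg on average, had been applied for 1 h to an Agilent 4 × 180k array of primer-extended double-stranded 36-bp intergenic genomic probes and negative controls.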

Sequence | gcPBM binding intensity (ln)
AAAGGGATGTTCATTCTTTTTTTTTTTTTTGTATAT [CACACA_negctrl_site511] | 9.46 ± 0.28
CTAAAAATCTTTTGTTGTACTTTTAGATAATCAGGA [XGTACX_site3968] | 11.5 ± 0.98
TACATATTTATATACACACACACCGTCCGTGTTAAA [CACACA_site7413] | 10.2 ± 0.14
AATGGTTTAAAATACTGTACATATATATAAAAGTAA [XGTACX_site6187] | 11.2 ± 0.83
TTCCTAATTGACAACACACACAACAAAAAAGGGATT [CACACA_site1279] | 10.3 ± 0.27
TTTTTTTAAATATACACACACATTTATACCTATATA [CACACA_site7572] | 10.2 ± 0.28
TATATATATATAGACACACACACACCCATATATATA [CACACA_site4117] | 10.2 ± 0.3
TATAACTATAAAAGTAGTACACATATATATTATATA [XGTACX_site1391] | 11.5 ± 1
CTTGTCATTTTGCACACACACATGTATAGGTTATTA [CACACA_site7431] | 10.4 ± 0.33
TATATTTATATGATAACACACATAAATTATACATTT [CACACA_site1671] | 9.86 ± 0.13
TTAATTTTATTTTTTTGTACACATAAATATTATAAA [XGTACX_site4680] | 11.4 ± 0.91
CACTAAAATAAACACACACACACACCGATATATATA [CACACA_site9379] | 10.2 ± 0.31
TATGTATATAAATTAACACACATATGTGGTTAATAG [CACACA_site3143] | 9.89 ± 0.057
AGTCTGAATAAAATTACACACATATACATATATATA [CACACA_site1780] | 9.755 ± 0.092
AAAAAAAAAAAAAAAACACACAATAAAGTAAAATTT [CACACA_site135] | 10.15 ± 0.049
ATATATAAATTTTAGTGTACATTAATTTTTTTTTTT [XGTACX_site7782] | 11.5 ± 0.7
TAAATATATTAAGCTTGTACATGAAAAAAAAAAAAA [XGTACX_site3264] | 10.7 ± 0.7
TAAAAAAAAAAAAAAGCATGCTATATTATATTACAC [TGCATGCA_site241] | 9.64 ± 0.057
TTTTTTTTTCCGTGTTGTACAAAAAAAAAGATTTTG [XGTACX_site3925] | 11.1 ± 0.74
AAGAAATATTTATACACACACACAAACATATAAATA [CACACA_site6981] | 10.14 ± 0.057
TATAACTATTCACAGACATGCACATAATAACAATAA [TGCATGCA_site207] | 10.07 ± 0.099
TACCTTTTTTGTTTTATGCACACCATATAACCAAGG [CACACA_site30] | 10.4 ± 0.32

Sequence | gcPBM binding intensity (ln)
GTACAAAAATAAATTGCACACATTTTAATAAAAAAA [CACACA_site2130] | 10.7 ± 0.19
CAAAATTGACATGACGCACACAAGTGTAGATATTTT [CACACA_site1250] | 10.31 ± 0.064
TAGTTGTTTATAACACGTTGACAGAAATGTTATGTA [GTGCAC_negctrl_site624] | 10.1 ± 0.11
TATATTTATTTATATACACACATATTTATAAATATA [CACACA_site7047] | 10.1 ± 0.17
AGATTTAAATATCATACACACTTTATCTATAATACA [CACACA_site6581] | 9.86
AAGCATTTCCATGGTGGTACTATACAAATAATAATT [XGTACX_site6193] | 11 ± 0.66
TATAAATAATGTTAAACACACATACCGATATATAAC [CACACA_site7306] | 9.99 ± 0.085
CGAACATTATAAATGTCATTTTTTCCAACTTGATCT [GTGCAC_negctrl_site501] | 9.75 ± 0.28
TCTCTCTTATAAAATACACACGAACAATCATATTAT [CACACA_site8065] | 10.14 ± 0.092
ATTTTTTTTTTTAAATGTACATAATATATATATAAT [XGTACX_site2686] | 11.1 ± 0.74
AAAAAAATTTGTATCACACACGTATTATAAAAAAAT [CACACA_site4182] | 10.4 ± 0.24
TATTAAACTAAATGTAGTACATACACAAACGTAATC [XGTACX_site4905] | 11.5 ± 0.97
TATTCGTGCAATAATGGTACACTTATAAATTATTCA [XGTACX_site1430] | 11.1 ± 0.63
TATATAATATATTAATGTACGTTATATGTATTCCTT [XGTACX_site6140] | 11.2 ± 0.81
CTTTTTTTTTAAATATCACACACATATAATATATTC [CACACA_site9222] | 9.875 ± 0.049
TAATTCATCATATGCACACACAATACCAAAATGTGC [CACACA_site191] | 10.2 ± 0.15
TACAGATATTCATATAAACACACATACAAATTATGT [CACACA_site7929] | 9.89 ± 0.11
AGTGTATTTTTATGTTGTACATGTAATATTTTTGAT [XGTACX_site541] | 11.3 ± 0.75
TATGTGGCACAAAAGGGTACATATAATTTATACAGG [XGTACX_site5499] | 11.3 ± 0.52
TTTCTAAACCGGTACAGTACATATAAAAATAGAATA [XGTACX_site6662] | 11.4 ± 0.91
AAAGGACAAAAAAATGCATGCCGTTAAATTATGTAC [TGCATGCA_site512] | 10.7 ± 0.27
AAACAGAATGCATATACACACATACAAAAAAGTGCA [CACACA_site6591] | 10.2 ± 0.2

Sequence | gcPBM binding intensity (ln)
TGTGTACCGATATTAAGTTTAACGTTATAAAAATAT [CACACA_negctrl_site1547] | 11.2 ± 0.94
TGAACATGTTAAAATAAACACACAGCTAAGGTTTTT [CACACA_site7934] | 9.8 ± 0.042
TATCATATAAATACATGTACATATTTGGAAAATAAT [XGTACX_site5373] | 11.2 ± 0.73
ATATATATATTAACAATACACACGTGTATACCTTAT [CACACA_site2217] | 10.38 ± 0.078
TAAAAAAAAATAAATACATGCATATAATACATTATA [TGCATGCA_site518] | 9.48 ± 0.14
TAATGAGGAAAAAGTGTGTTAAGATTTTATAATTTA [GTGCAC_negctrl_site608] | 9.71 ± 0.085
CTTAGAGTATTTAAATGTACACGTTTGTATATGTAT [XGTACX_site1767] | 11.3 ± 0.79
TAGTAAATAACAAAAGGAAAAATTAATGAGGCAAAA [TGCATGCA_negctrl_site526] | 9.945 ± 0.021
CATATACACGAACACACACACATATATATATATATA [CACACA_site4437] | 10.5 ± 0.68
CATCATAGCATTCCTCGTACAAATATAAACATATCA [XGTACX_site2711] | 10.8 ± 0.59
ATGTTTTGTAAAATGATTAAATATTAAGATTCAATA [CACACA_negctrl_site1743] | 9.645 ± 0.021
ATAAATAAATACATATGTACATATATATATATATAT [XGTACX_site7145] | 11.1 ± 0.57
AAATTATATCCCCTTTGTACTTACAGATCTTTATAC [XGTACX_site8163] | 11.2 ± 0.76
TCAGTTAATGTATATGTACACACGGGGTGTATATAT [CACACA_site9103] | 11.2 ± 0.73
ATATATATATTAAGGGGTACGTAAAAAATTGGGAAG [XGTACX_site7322] | 11.5 ± 1
CCCAATAATTAAACAACACACATATATATATGTAAT [CACACA_site3084] | 9.795 ± 0.007
TACATATTTTTTATGTGTACATATTTTTTATGTGTG [XGTACX_site444] | 11.5 ± 0.68
TTCTTTTTTCTTTATGGTACGTGTAATATATATCAA [XGTACX_site7960] | 11.2 ± 0.69
CTTTATTTTTTATACACACACAATATGTATAAATAT [CACACA_site7638] | 10.2 ± 0.21
ATAAAATACAGATAAACACACATATAAACACCCATA [CACACA_site5381] | 10.4 ± 0.33
TTTTTTTTTCTTTCTCTTTAAATATTAATTAAAAAA [GTGCAC_negctrl_site90] | 9.85 ± 0.27
TTTATAAAATTATTTGCATGTAACAATTATAAATTG [TGCATGCA_site1026] | 9.97 ± 0.042

Sequence | gcPBM binding intensity (ln)
TAACTATCATGTATTACACACAATATTTATTATAGA [CACACA_site7301] | 9.94 ± 0.16
AATGTGAAATATAAATGTACATAAATATATATATAT [XGTACX_site8710] | 11.2 ± 0.45
AAAATATAAATATATTGTACTGTTATATAATAAAAT [XGTACX_site2132] | 10.5 ± 0.38
AGAGGAGTAAAACAAAACAAAGAGAAATAAACACAC [XGTACX_negctrl_site386] | 10.8 ± 0.62
AATTAATAAATATTATATGTTAATATTTTTTTTGTT [CACACA_negctrl_site1692] | 9.48 ± 0.11
ACTTAATATCGGTACACACACAAGATAAGAATTATG [CACACA_site894] | 11.3 ± 0.75
AAAAAATATAATAATTGTACACATGCACACACAAAT [XGTACX_site1563] | 11.4 ± 0.76
TTTCATATCTTGTCAAGTACATATTTTTATTTTCTT [XGTACX_site2160] | 11 ± 0.58
AATAACACTATTTAACGTACAAAAAAAAAAAAGAAA [XGTACX_site3721] | 11.1 ± 0.84
TTTTTATAAAAATGAACACACACATATATATATATA [CACACA_site9160] | 10.2 ± 0.49
TATAATAAAATATTTTGTACGTATATTTTAATATTT [XGTACX_site2582] | 11.2 ± 0.72
AAAAAAAATAAAAATAGTACCCAAAAAATTATGAAT [XGTACX_site6641] | 11.1 ± 0.73
ATACTAAAAATGAATGTACACATATATATATATATA [TGCATGCA_negctrl_site209] | 11.3 ± 0.77
ATATATCTTTATATAGTGCATTAAATATGTTGTAAT [GTGCAC_site9953] | 9.82 ± 0.13
TATCATACAATATTCACACAAATAAATTGACATATT [CACACA_site5891] | 9.64 ± 0.014
ACAAAAAAAAAAAAAAAAAGAAGAATATATCTATAT [CACACA_negctrl_site759] | 9.33 ± 0.21
AAAAAGGAAATAATAACACACATTAGTAATTATAAA [CACACA_site7573] | 9.715 ± 0.064
TATTAAAAAAATATTTGTACTTAAAATTTATTATAT [XGTACX_site1467] | 11 ± 0.67
TATTTTCTTTAATTAATTATTGGTCTGAATGGGGTT [CACACA_negctrl_site418] | 10.2 ± 0.38
CACAGACACGGACACACACACACAAAAAAAAAAAGA [CACACA_site4436] | 11.4 ± 1.1
TTTATTGATAATATATATATATATATATATATATAT [GTGCAC_negctrl_site552] | 9.88 ± 0.64
TCATATGTTAAACACACACACACACCGAAAAAAACA [CACACA_site9067] | 10.2 ± 0.3
